# Source: the supplement of paper PMC4466236
# In all, about 33,000 sequences were measured (“E-score (dimensionless, -0.5 to 0.5)”: median about -0.058, highest 2% from about 0.35 on). This is one part of the list.
# System: MvaT
# Test: PBM 8-mer E-score (mean of HK and ME arrays) (E-score (dimensionless, -0.5 to 0.5)); higher = stronger relative binding preference; most listed sequences are background and not binding sites
# Description: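 Protein binding microarray: GST-tagged full-length MvaT (P. aeruginosa PAO1) bound to two universal double-stranded 60-mer arrays (ME and HK), each with a constant 25-mer primer and a variable 35-mer region covering all 8-mers. The 8-mer E-score (rank-based, range -0.5 to 0.5, >0.45 = specific binding) is the mean of the two arrays.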
row,Sequence,PBM 8-mer E-score
1,ATAAAGAG,0.243
2,AAACGTGT,-0.0108
3,ATCCCAGC,-0.193
4,CTTACCTC,0.0108
5,ACGCTGCG,-0.145
6,CGAAAAAA,0.151
7,AGCCACTC,-0.25
8,GGCATAGA,-0.167
9,GATGTTAC,0.115
10,AAGTAGTC,0.226
11,CAAGGCCG,-0.31
12,TCAGAGGA,-0.198
13,CGCTGCAG,-0.128
14,AAGTGGCT,-0.152
15,CGTCCCTC,-0.271
16,CCGTTTCC,-0.0961
17,CATGTTCG,0.0679
18,GGGATGGA,-0.3
19,TAACGTGA,0.153
20,CCGAAAGC,-0.281
21,GCAGACTA,-0.0219
22,CGAAGCAA,-0.0842
23,ACCCAGTC,-0.131
24,CCTCAACA,-0.112
25,CGCTCAAG,-0.137

row,Sequence,PBM 8-mer E-score
1,TCCCAACA,0.111
2,AGTCCTAT,-0.0292
3,CACACTGC,-0.000522
4,CAGTTCCA,-0.0926
5,AAAATCAC,0.0204
6,CCCGCGAG,-0.105
7,CGAACCAA,-0.113
8,AAAGTTCG,0.303
9,GGACTTAA,0.0977
10,ATTTGCTA,0.152
11,AAAATTTT,0.354
12,AACCGTAG,-0.0784
13,GTAGAAAC,0.215
14,AAGGTGAA,0.0174
15,AGTCAAGA,-0.0115
16,CCGATTGA,-0.0917
17,CCATGGCG,-0.115
18,AACGTGAT,0.0805
19,AAATTTTA,0.35
20,GCGCCACA,-0.225
21,AGACGCCC,-0.287
22,CCAAAATC,0.17
23,CCTATCCC,-0.0455
24,AATTACAG,0.268
25,ATGTGCCA,-0.0332

row,Sequence,PBM 8-mer E-score
1,CCACTGGA,-0.239
2,ATCCTGAG,-0.0656
3,CTTAAAGC,-0.00393
4,GCGTTAAA,0.172
5,AAACCAAT,0.232
6,GGAAACCC,-0.323
7,GCCTTTCC,-0.265
8,GCATATCA,0.0663
9,AGCAGTAT,0.126
10,AACGTATT,0.304
11,GGGGAGAC,-0.218
12,CAGCTAAA,-0.0716
13,CAACATGA,0.157
14,CACAGTGC,-0.217
15,CTCCCGAA,-0.154
16,ATCCACTA,-0.0565
17,CTTCACGC,-0.115
18,CCTTTCCG,-0.074
19,AACTCAGA,0.121
20,AAAATGCA,0.0909
21,ACTTTAAC,0.326
22,ACTGGTTA,-0.00614
23,ACAGGCCA,-0.184
24,ATTTTGGC,0.0549
25,AGAAGTAG,0.00917

row,Sequence,PBM 8-mer E-score
1,ATATCCCA,0.172
2,CAGTTGTA,0.0922
3,CGTCAATC,-0.247
4,ATTTCACC,0.0547
5,CAACGTTC,-0.089
6,TACCCCGA,-0.154
7,GTACAAAA,0.139
8,ACTCAAGG,-0.0759
9,ATCGTGTG,-0.108
10,CTGTTGAA,0.00388
11,AGGTTGGA,-0.0834
12,CTTTCCTA,0.101
13,CATAGCTA,-0.1
14,ATGGAGAG,-0.196
15,CGAGGCCA,-0.218
16,GTCGGATA,-0.0634
17,ACTATATC,0.268
18,CCCGTGAC,-0.261
19,AGGCGACG,-0.145
20,GGGGACCC,-0.266
21,AATCTCCT,-0.109
22,CAGGGCGC,-0.198
23,CGCGGAAC,-0.0582
24,GGCGACAA,0.0266
25,ACAGCCAA,0.141

row,Sequence,PBM 8-mer E-score
1,TCAGTCAA,-0.0838
2,GATTGCGC,-0.0694
3,AGCGGAGA,-0.0867
4,ACAAGGGC,-0.163
5,AGTGTAAG,0.173
6,CCCTAAGG,-0.289
7,CAAGGTAA,-0.0084
8,ATGGATTG,-0.117
9,CTCTTATC,-0.0531
10,CTTATCAA,0.149
11,AAAATCAG,0.0744
12,AGAGAAGC,-0.0705
13,GGCTGGCA,-0.241
14,GCTCTACA,-0.0761
15,AGTACTAC,0.202
16,ATTCATAC,0.164
17,AACCATCA,-0.0905
18,GATTTTAA,0.248
19,ACAACAGG,0.0643
20,CTAAAAAA,0.0548
21,ATGAGTGC,0.0329
22,ATGCAAAT,0.217
23,ACCGTCTC,-0.24
24,CCGTTGAC,-0.2
25,ATGTAAAA,0.247

row,Sequence,PBM 8-mer E-score
1,CCTTTCCC,-0.217
2,ATCAAGGA,0.00087
3,ACCGACCA,-0.137
4,AAAGATCA,0.0885
5,ACACCTAC,-0.0326
6,AGCGGTTA,-0.0779
7,AGGGAGCG,-0.408
8,ATGCCTTC,-0.169
9,CTGGTGTA,0.0332
10,CCATCTCG,-0.185
11,ACGATTGG,-0.0463
12,ATATTCAT,0.245
13,CATACCGG,-0.153
14,GTGAAGGA,-0.187
15,CAAACCGA,0.136
16,CACAGCCC,-0.157
17,GCAAAGAA,0.0997
18,AAAAATTT,0.298
19,ACGAAAAT,0.228
20,ATGAACAC,0.0647
21,GAGCGAGC,-0.273
22,GCTTCGCA,-0.164
23,AACAGGGG,-0.116
24,AGGGCAAG,-0.307
25,ATACGATG,0.0432

row,Sequence,PBM 8-mer E-score
1,ACTTCAAG,0.0655
2,ACTGTCTA,0.00521
3,ACGTATGG,-0.0552
4,TCGTCTAA,-0.0936
5,CCGGGATC,-0.0679
6,GACTCCTC,-0.28
7,AGAGGCCA,-0.0967
8,AGTGCGAG,0.0153
9,ATAGTCTG,0.2
10,CGTATCTC,-0.122
11,AGCCCGAT,-0.192
12,TGTCCCAA,0.187
13,ATCGTGGG,-0.0734
14,ATAGGCAC,-0.0327
15,AGTTAGCA,0.251
16,ACTATACG,0.0773
17,AGCGGTAA,-0.104
18,AATAAAGA,0.344
19,AATGCATA,0.273
20,ACCAGAGG,-0.141
21,ACAATAGG,0.215
22,CGAGTGAG,-0.117
